Assay results from PubChem BioAssay (NCATS).
The list shows a part of the results. These are further read-outs of the screen, such as a control signal, another cell line or another target. No call is given for them. For some of these results: The list favours compounds with an active or inconclusive main result. Words in brackets tell the shape of the fitted curve; partial curves, single points and poor fits give uncertain potencies.

What was measured:
[1] = biological target: Catechol O-methyltransferase (Homo sapiens) (UniProt P21964); experiment: Confirmatory Screen for Target Class Profiling of Small Molecule Inhibitors of Methyltransferases (AID 1745852); conditions: MTase-Glo luminescence, SAH detection, recombinant enzyme; measured here: COMT inhibition potency;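 also: inhibitor potency for blocking SAH production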
[2] = biological target: Histamine N-methyltransferase (Homo sapiens) (UniProt P50135); experiment: as above; conditions: MTase-Glo luminescence, SAH detection, recombinant enzyme; measured here: HNMT inhibition potency
[3] = biological target: Nicotinamide N-methyltransferase (Homo sapiens) (UniProt P40261); experiment: as above; conditions: MTase-Glo luminescence, SAH detection, recombinant enzyme; measured here: NNMT inhibition potency
[4] = biological target: Phenylethanolamine N-methyltransferase (Homo sapiens) (UniProt P11086); experiment: as above; conditions: MTase-Glo luminescence, SAH detection, recombinant enzyme; measured here: PNMT inhibition potency
[5] = qHTS drug screen for cell cycle checkpoint inhibitors in PARPi-resistant BRCA-mutant ovarian cancer cell lines. (AID 1963452); conditions: PEO1/OlaR viability, CellTiter-Glo luminescence, 96 h
How it was run: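 PEO1, PEO4 and PEO1/OlaR ovarian cancer cells, 600 per well, exposed 96 h at 37C to a dilution series. Viability read by CellTiter-Glo luminescence, normalized to DMSO and empty wells; activity summarized as Z-AUC.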

[6] = qHTS for identification of novel therapeutic agents for treatment of microphthalmiaassociated transcription factor (MiT) renal cell carcinoma (RCC) (AID 1963991); conditions: CellTiter-Glo, 48 h; for z-score: stronger effect = lower value
How it was run: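 Three TFE3-fusion RCC cell lines (UOK109, UOK124, UOK145), 500 cells/well, were exposed to the 1912-compound MIPE 4.0 library for 48 hours at 37 C. Viability was read by CellTiter-Glo luminescence, normalised to DMSO (100%) and empty wells (0%), with 11-concentration curve fits.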

[7] = NCATS anti-infectives library activity on the primary C. elegans qHTS viability assay (AID 1745855); conditions: C. elegans worm area imaging, day 7, measured here: worm number
How it was run: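 Titration-based screen in worms: eggs hatched overnight in M9, L1 larvae fed TOP10 capsules in S medium with compound, incubated 21 °C for 7 days; fluorescent objects gated by size and intensity at days 0, 3 and 7.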

[8] = measured here: PEO1 parental viability
[9] = TFE3-RCC viability, measured here: UOK124 cell viability
[10] = TFE3-RCC viability, measured here: UOK145 cell viability
[11] = TFE3-RCC UOK109 viability, measured here: UOK109 Z-AUC
[12] = TFE3-RCC viability, measured here: UOK124 Z-AUC
[13] = TFE3-RCC viability, measured here: UOK145 Z-AUC
Tags tell the direction and shape of the fitted curve.

Sequence of UniProt P21964 (P21964 whole entry, looked up): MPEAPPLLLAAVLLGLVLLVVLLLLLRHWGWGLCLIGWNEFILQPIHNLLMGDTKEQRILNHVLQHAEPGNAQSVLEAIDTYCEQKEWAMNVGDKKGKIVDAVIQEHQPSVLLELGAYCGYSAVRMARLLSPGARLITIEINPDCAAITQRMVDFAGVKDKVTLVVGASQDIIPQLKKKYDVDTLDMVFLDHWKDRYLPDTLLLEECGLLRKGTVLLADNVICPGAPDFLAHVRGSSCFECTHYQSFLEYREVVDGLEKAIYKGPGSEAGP
Sequence of UniProt P40261 (P40261 whole entry, looked up): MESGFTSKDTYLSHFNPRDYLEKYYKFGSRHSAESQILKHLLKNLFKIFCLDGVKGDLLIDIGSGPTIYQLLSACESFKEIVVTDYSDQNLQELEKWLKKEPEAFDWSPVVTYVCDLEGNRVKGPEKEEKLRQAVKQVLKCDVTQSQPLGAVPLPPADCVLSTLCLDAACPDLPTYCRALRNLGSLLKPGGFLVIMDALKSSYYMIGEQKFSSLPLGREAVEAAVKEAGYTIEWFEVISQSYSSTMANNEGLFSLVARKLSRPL
Sequence of UniProt P50135 (P50135 whole entry, looked up): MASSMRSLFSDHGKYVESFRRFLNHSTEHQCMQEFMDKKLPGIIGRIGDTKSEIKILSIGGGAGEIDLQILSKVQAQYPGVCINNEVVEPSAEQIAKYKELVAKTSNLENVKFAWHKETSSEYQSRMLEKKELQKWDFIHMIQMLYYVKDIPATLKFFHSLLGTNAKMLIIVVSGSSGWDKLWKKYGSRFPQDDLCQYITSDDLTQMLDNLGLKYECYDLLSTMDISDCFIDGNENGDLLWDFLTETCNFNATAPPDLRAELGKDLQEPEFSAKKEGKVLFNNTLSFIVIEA
Sequence of UniProt P11086 (P11086 whole entry, looked up): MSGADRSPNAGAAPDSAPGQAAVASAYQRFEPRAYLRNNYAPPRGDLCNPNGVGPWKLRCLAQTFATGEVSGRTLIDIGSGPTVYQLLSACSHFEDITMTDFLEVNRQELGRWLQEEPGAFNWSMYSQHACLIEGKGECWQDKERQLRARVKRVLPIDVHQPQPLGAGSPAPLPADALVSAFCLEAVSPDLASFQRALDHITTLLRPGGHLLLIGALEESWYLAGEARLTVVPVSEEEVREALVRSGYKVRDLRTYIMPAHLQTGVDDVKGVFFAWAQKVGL

Compound | IC50 [1] | IC50 [2] | IC50 [3] | IC50 [4] | AC50 [5, 8] | AC50 ([5]; measured here: PEO4 viability) | AC50 [6, 9] | AC50 [6, 10] | AC50 [7] | z-score [6, 11] | z-score [6, 12] | z-score [6, 13]
OCCCNc1cc(-c2ccnc(Nc3cccc(Cl)c3)n2)ccn1 | 7.64 µM [falling, full curve] | 9.61 µM [falling, full curve] | 10.8 µM [falling, full curve] | 8.57 µM [falling, full curve] | 0.155 µM [falling, full curve] | 0.245 µM [falling, full curve, poor fit] | 0.148 µM [falling, full curve] | 0.0743 µM [falling, full curve] |  |  |  | 
CCOc1cc2ncc(C#N)c(Nc3ccc(F)c(Cl)c3)c2cc1NC(=O)/C=C/CN(C)C | 3.83 µM [falling, full curve] | 3.41 µM [falling, full curve] | 5.41 µM [falling, full curve] | 4.29 µM [falling, full curve] | 3.89 µM [falling, full curve] | 2.45 µM [falling, full curve] |  |  | 4.09 µM [falling, partial curve, poor fit] |  |  | 
C=CC(=O)Nc1ccc2ncnc(Nc3cccc(Br)c3)c2c1 | 17.1 µM [falling, partial curve] | 21.5 µM [falling, partial curve] | 24.1 µM [falling, partial curve] | 15.2 µM [falling, partial curve] | 6.16 µM [falling, partial curve] | 3.89 µM [falling, partial curve] |  |  |  |  |  | 
COCc1nc2nc(-c3ccccc3)c(-c3ccc(O)c(F)c3)cc2n1C | 39.3 µM [falling, single point] | 35 µM [falling, partial curve] | 31.2 µM [falling, partial curve] | 35 µM [falling, partial curve] |  |  |  |  |  |  |  | 
O=C(O)c1ccc(Nc2nc3ccccc3n3cnnc23)cc1 | 21.7 µM [falling, partial curve] | 21.7 µM [falling, partial curve] | 15.3 µM [falling, partial curve] | 21.7 µM [falling, partial curve] |  |  |  |  |  |  |  | 
CCN1CCC(n2cc(CNc3cc(Cl)c4ncc(C#N)c(Nc5ccc(F)c(Cl)c5)c4c3)nn2)CC1 | 8.57 µM [falling, full curve] | 1.08 µM [falling, full curve] | 10.8 µM [falling, full curve] | 9.61 µM [falling, full curve] | 2.75 µM [falling, full curve, poor fit] | 1.74 µM [falling, full curve, poor fit] | 23.5 µM [falling, partial curve] | 23.5 µM [falling, partial curve] |  | -0.438 | 0.254 | 0.479
CN1CCC(CNc2ccc3ncc(-c4cccc(OC(F)(F)F)c4)n3n2)CC1 | 24.1 µM [falling, partial curve] | 19.2 µM [falling, partial curve] | 24.1 µM [falling, partial curve] | 21.5 µM [falling, partial curve] | 12.3 µM [falling, partial curve] | 12.3 µM [falling, partial curve] | 14.8 µM [falling, partial curve] | 23.5 µM [falling, partial curve] |  | -0.222 | -0.442 | 0.209
C[C@H](Oc1cc(-c2cnn(C3CCNCC3)c2)cnc1N)c1c(Cl)ccc(F)c1Cl | 24.1 µM [falling, partial curve] | 19.2 µM [falling, partial curve] | 24.1 µM [falling, partial curve] | 24.1 µM [falling, partial curve] |  |  |  |  |  |  |  | 
COc1cc(Nc2c(C#N)cnc3cc(OCCCN4CCN(C)CC4)c(OC)cc23)c(Cl)cc1Cl | 10.8 µM [falling, partial curve] | 8.57 µM [falling, full curve] | 12.1 µM [falling, partial curve] | 10.8 µM [falling, partial curve] | 3.47 µM [falling, full curve] | 3.47 µM [falling, full curve] | 18.7 µM [falling, partial curve] | 2.96 µM [falling, full curve] |  | -1.9 | -0.876 | -0.592
Cc1c(OCc2ccc(C(=O)O)o2)ccc2c(-c3ccccc3)cc(=O)oc12 | 27.1 µM [falling, partial curve] | 34.1 µM [falling, single point] | 24.1 µM [falling, partial curve] | 24.1 µM [falling, partial curve] |  |  |  |  |  |  |  | 
